{"source": "PubChem BioAssay AID485294", "about": "(National Center for Advancing Translational Sciences (NCATS), 2010)", "note": "Hit rate of the full screen: of about 370,000 compounds, about 150 (0.041%) were called active. The inconclusive results got no clear call from the source; some entries with a clear call stand among them for comparison. Calls come from the whole dose curve; as a rule, active = well fitted inhibition curve with a large enough effect; inconclusive = small, poorly fitted or top-dose-only effect; inactive = flat fitted curve, though single readings scatter. Potencies of inconclusive entries are left out as doubtful fits. Potency is the fitted concentration of half-maximal effect; tags give direction and shape of the fitted curve."}
{"target": "Beta-lactamase (Escherichia coli (strain K12)) (UniProt P00811)", "sequence (P00811 whole entry, looked up)": "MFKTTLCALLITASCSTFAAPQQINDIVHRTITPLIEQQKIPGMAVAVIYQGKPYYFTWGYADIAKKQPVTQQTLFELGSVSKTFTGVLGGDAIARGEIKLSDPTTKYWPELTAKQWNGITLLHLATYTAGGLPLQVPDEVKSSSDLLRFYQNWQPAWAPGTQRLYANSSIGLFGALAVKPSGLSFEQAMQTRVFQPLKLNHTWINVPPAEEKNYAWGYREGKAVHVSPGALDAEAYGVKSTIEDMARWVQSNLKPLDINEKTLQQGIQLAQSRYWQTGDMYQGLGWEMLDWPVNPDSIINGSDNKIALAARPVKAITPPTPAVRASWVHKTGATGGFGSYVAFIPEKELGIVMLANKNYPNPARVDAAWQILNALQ", "assay": "qHTS Inhibitors of AmpC Beta-Lactamase (assay with detergent); note: nearly all actives have a fitted effect of over 25% in size", "conditions": "AmpC hydrolysis of nitrocefin, absorbance 480 nm, 0.01% Triton; series mostly up to 114 µM", "how_it_was_run": "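AmpC (5.3 nM in the dispensed reagent) in 20 mM phosphate pH 7.0 with 0.01% (detergent screen) or 0.0001% Triton X-100 was preincubated with compounds for 15 min at room temperature. Nitrocefin was then added from an 800 uM solution, and hydrolysis was followed at 480 nm.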"}
{"smiles": "O=C(CCl)NNc1nc(-c2ccccc2)c2cc(Cl)ccc2n1", "Potency": "inconclusive [inhibitor, full curve]"}
{"smiles": "COC(=O)CSc1ncc(C#N)c(N)n1", "Potency": "inconclusive [inhibitor, full curve]"}
{"smiles": "Cc1ccc(C(=O)N/C(=C\\c2ccco2)C(=O)NCCN2CCOCC2)cc1", "Potency": "inconclusive [inhibitor, full curve, poor fit]"}
{"smiles": "Cc1ccc(CN2CCN(/N=C/c3ccc(C(F)(F)F)cc3)CC2)c(C)c1", "Potency": "inconclusive [inhibitor, single point]"}
{"smiles": "Cc1ccc(C(c2sc3ncnn3c2O)N2CC(C)CC(C)C2)cc1", "note": "(stereo unspecified)", "Potency": "inconclusive [inhibitor, full curve]"}
{"smiles": "O=C(O)CCn1cc(/C=C2\\SC(=S)NC2=O)c(-c2ccccc2)n1", "Potency": "inactive"}
{"smiles": "CC(=O)Nc1ccc(S(=O)(=O)N2CCSC2c2ccc(C)cc2)cc1", "note": "(stereo unspecified)", "Potency": "inconclusive [inhibitor, full curve, poor fit]"}
{"smiles": "O=C(CCSc1nc(-c2ccco2)cc(C(F)(F)F)n1)NCCc1ccccc1", "Potency": "inconclusive [inhibitor, partial curve]"}
{"smiles": "O=C(Cc1ccc(Cl)c(Cl)c1)NC1CCCCCC1", "Potency": "inactive"}
{"smiles": "CCc1nc2oc3ccccc3c(=O)c2c(=O)n1Cc1ccccc1", "Potency": "inconclusive [inhibitor, full curve, poor fit]"}
{"smiles": "CCCCn1c(-c2ccc(Cl)c(Cl)c2)nc2cc3[nH]c(=O)c(C(C)C)nc3cc21", "Potency": "inconclusive [inhibitor, partial curve, poor fit]"}
{"smiles": "O=C(CCCC(=O)N(c1ccc2c(c1)OCCO2)C(C(=O)NC1CCCCC1)c1ccc(F)cc1)Nc1ccccn1", "note": "(stereo unspecified)", "Potency": "inconclusive [inhibitor, partial curve, poor fit]"}
{"smiles": "C(=C\\n1nnc2ccccc21)/c1ccc[nH]1", "Potency": "inconclusive [inhibitor, partial curve, poor fit]"}
{"smiles": "CN1CCN(c2ccc(Cl)cc2NC(=O)c2ccc(=O)n(C)n2)CC1", "Potency": "inconclusive [inhibitor, full curve, poor fit]"}
{"smiles": "CC(C)Oc1ccc(S(=O)(=O)N2CCOCC2)cc1NC(=O)C1CSC2(C)CCC(=O)N12", "note": "(stereo unspecified)", "Potency": "inconclusive [inhibitor, partial curve]"}
{"smiles": "CCN(C(=O)Cn1nnc2sc3c(c2c1=O)CCC(C(C)(C)C)C3)c1cccc(C)c1", "note": "(stereo unspecified)", "Potency": "inactive"}
{"smiles": "Cc1nc2c(-c3ccc(F)cc3)c(C)nn2c(C)c1CCC(=O)N1CCN(c2ccccc2)CC1", "Potency": "inconclusive [inhibitor, full curve, poor fit]"}
{"smiles": "Cc1ccc(OCCCN2CCCC2)c(C)c1", "Potency": "inconclusive [inhibitor, full curve, poor fit]"}
{"smiles": "COc1ccc(CNC(=O)Cn2c(=O)nc(-c3ccccc3)c3ccccc32)cc1OC", "Potency": "inconclusive [inhibitor, single point]"}
{"smiles": "COC(=O)c1c(C(=O)OC)c2n(c1C)CCC2", "Potency": "inconclusive [inhibitor, full curve, poor fit]"}
{"smiles": "COc1cc(OC)c(/C=N/NC(=O)c2ccc(Cn3nc([N+](=O)[O-])cc3C)cc2)c(OC)c1", "Potency": "inactive"}
{"smiles": "Cc1cc(N)n(-c2ccc(S(=O)(=O)c3ccc(C(C)C)cc3)cc2)n1", "Potency": "inconclusive [inhibitor, full curve]"}
{"smiles": "CC(C)CC1(C)NC(=O)N(CC(=O)NC(=O)Nc2ccc3c(c2)OCCO3)C1=O", "note": "(stereo unspecified)", "Potency": "inactive"}
{"smiles": "OCCSc1nc2ccccc2n1CCOc1ccccc1", "Potency": "inconclusive [inhibitor, single point]"}
{"smiles": "NC(=O)CN1CC(c2ccccc2)CC1=O", "note": "(stereo unspecified)", "Potency": "inconclusive [inhibitor, full curve, poor fit]"}
{"smiles": "Cc1ccc(S(=O)(=O)N(CC(=O)Nc2ccc3c(c2)OCO3)c2cc(Cl)cc(Cl)c2)cc1", "Potency": "inactive"}
{"smiles": "O=C1CC(SC2=NCCS2)C(=O)N1c1cccc(Cl)c1Cl", "note": "(stereo unspecified)", "Potency": "inconclusive [inhibitor, single point]"}
{"smiles": "Cc1ccc(C)c(OCCC(=O)OCC(=O)NCCNC(=O)COC(=O)CCOc2cc(C)ccc2C)c1", "Potency": "inconclusive [inhibitor, partial curve, poor fit]"}
{"smiles": "O=C(NCCS(=O)(=O)NC1CCCCC1)c1ccc2c(c1)OCO2", "Potency": "inconclusive [inhibitor, single point]"}
{"smiles": "CC(=O)c1sc2nc(-c3cccs3)ccc2c1N", "Potency": "inconclusive [inhibitor, full curve]"}
{"smiles": "CC1CCc2nc3sc4c(c3c(N)c2C1)CCCC4", "note": "(stereo unspecified)", "Potency": "inactive"}
{"smiles": "NS(=O)(=O)c1ccc(CCNC(=O)COC(=O)c2cc([N+](=O)[O-])ccc2N2CCOCC2)cc1", "Potency": "inconclusive [inhibitor, full curve]"}
{"smiles": "CCc1nn2c(=O)cc(COC(=O)COc3ccc(OC)cc3)nc2s1", "Potency": "inconclusive [inhibitor, partial curve]"}
{"smiles": "COc1cccc(-c2nc(C(=O)NCCCN3CCOCC3)cc3c2[nH]c2ccccc23)c1", "Potency": "inconclusive [inhibitor, full curve, poor fit]"}
{"smiles": "Cc1ccc(NS(=O)(=O)c2cc(OCC(N)=O)c(C)cc2Cl)cc1", "Potency": "inconclusive [inhibitor, partial curve, poor fit]"}
{"smiles": "CCOC(=O)c1sc2ncn(CC(=O)Nc3ccc(OCC)cc3)c(=O)c2c1C", "Potency": "inconclusive [inhibitor, partial curve, poor fit]"}
{"smiles": "CCCN(C(=O)/C=C/c1ccco1)c1c(N)n(Cc2ccccc2)c(=O)[nH]c1=O", "Potency": "inactive"}
{"smiles": "CCCCCC(=O)Nc1cccc(C2=NOC3(C2)C[C@@H](C(N)=O)N(C(=O)CC(c2ccccc2)c2ccccc2)C3)c1", "note": "(stereo partly specified)", "Potency": "inactive"}
{"smiles": "CCOc1ccc(NC(=O)CCCn2nc(C)c3c(C)n(-c4ccccc4)nc3c2=O)cc1", "Potency": "inactive"}
{"smiles": "O=C(CCSc1ccccc1)NC1CCCC1", "Potency": "inconclusive [inhibitor, single point]"}
{"smiles": "O=c1[nH]c(NC2CCN(S(=O)(=O)c3ccccc3C(F)(F)F)CC2)nc2c1CCCC2", "Potency": "inconclusive [inhibitor, full curve, poor fit]"}
